Experiment in all cases: ectopic mistargeting to mitochondria (Tom20-GBP); mEGFP-, GFP- or mECitrine-tagged protein 1 mistargeted to mitochondria by Tom20 tagged with GFP-binding protein (GBP) nanobody in live S. pombe cells; recruitment of tdTomato-, mCherry- or RFP-tagged protein 2 to mitochondria seen by confocal microscopy
For experiment [1], the target named is T1, 3nmt1-mECitrine-Ync13 (S. pombe) (UniProt O13683).
T1 sequence: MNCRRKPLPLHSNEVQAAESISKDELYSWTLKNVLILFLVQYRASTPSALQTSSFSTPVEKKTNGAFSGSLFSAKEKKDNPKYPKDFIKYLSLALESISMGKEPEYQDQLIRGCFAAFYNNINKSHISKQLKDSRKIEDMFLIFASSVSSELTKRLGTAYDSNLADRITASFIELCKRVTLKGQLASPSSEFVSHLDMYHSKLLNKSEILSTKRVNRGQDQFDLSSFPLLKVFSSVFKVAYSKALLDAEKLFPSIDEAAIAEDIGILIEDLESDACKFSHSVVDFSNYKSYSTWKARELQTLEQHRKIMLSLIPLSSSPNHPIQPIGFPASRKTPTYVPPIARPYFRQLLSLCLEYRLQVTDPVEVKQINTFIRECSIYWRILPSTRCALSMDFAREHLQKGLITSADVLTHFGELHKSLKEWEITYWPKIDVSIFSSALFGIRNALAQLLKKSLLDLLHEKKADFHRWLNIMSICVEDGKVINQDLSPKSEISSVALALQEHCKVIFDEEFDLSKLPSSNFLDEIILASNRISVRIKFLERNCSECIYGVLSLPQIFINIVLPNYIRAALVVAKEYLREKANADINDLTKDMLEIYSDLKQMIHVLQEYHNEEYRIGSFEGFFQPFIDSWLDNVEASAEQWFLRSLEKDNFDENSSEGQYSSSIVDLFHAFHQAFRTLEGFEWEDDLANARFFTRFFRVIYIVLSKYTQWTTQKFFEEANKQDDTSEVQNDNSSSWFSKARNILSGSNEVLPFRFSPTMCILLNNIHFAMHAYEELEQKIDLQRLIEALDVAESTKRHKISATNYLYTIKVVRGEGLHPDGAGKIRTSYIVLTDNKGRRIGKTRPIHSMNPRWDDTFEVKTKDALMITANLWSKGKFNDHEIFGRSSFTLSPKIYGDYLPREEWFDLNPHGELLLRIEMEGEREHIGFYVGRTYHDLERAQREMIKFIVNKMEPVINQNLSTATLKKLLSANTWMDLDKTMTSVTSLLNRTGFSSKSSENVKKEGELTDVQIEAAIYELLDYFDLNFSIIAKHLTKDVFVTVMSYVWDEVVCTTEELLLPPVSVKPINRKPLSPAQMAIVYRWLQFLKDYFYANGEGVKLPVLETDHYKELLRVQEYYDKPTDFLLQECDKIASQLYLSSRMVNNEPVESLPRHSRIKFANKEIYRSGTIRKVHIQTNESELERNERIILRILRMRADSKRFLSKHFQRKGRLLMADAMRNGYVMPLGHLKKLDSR

By UniProt entry, the sequences of proteins in these tests, tags left out.
UniProt O74475: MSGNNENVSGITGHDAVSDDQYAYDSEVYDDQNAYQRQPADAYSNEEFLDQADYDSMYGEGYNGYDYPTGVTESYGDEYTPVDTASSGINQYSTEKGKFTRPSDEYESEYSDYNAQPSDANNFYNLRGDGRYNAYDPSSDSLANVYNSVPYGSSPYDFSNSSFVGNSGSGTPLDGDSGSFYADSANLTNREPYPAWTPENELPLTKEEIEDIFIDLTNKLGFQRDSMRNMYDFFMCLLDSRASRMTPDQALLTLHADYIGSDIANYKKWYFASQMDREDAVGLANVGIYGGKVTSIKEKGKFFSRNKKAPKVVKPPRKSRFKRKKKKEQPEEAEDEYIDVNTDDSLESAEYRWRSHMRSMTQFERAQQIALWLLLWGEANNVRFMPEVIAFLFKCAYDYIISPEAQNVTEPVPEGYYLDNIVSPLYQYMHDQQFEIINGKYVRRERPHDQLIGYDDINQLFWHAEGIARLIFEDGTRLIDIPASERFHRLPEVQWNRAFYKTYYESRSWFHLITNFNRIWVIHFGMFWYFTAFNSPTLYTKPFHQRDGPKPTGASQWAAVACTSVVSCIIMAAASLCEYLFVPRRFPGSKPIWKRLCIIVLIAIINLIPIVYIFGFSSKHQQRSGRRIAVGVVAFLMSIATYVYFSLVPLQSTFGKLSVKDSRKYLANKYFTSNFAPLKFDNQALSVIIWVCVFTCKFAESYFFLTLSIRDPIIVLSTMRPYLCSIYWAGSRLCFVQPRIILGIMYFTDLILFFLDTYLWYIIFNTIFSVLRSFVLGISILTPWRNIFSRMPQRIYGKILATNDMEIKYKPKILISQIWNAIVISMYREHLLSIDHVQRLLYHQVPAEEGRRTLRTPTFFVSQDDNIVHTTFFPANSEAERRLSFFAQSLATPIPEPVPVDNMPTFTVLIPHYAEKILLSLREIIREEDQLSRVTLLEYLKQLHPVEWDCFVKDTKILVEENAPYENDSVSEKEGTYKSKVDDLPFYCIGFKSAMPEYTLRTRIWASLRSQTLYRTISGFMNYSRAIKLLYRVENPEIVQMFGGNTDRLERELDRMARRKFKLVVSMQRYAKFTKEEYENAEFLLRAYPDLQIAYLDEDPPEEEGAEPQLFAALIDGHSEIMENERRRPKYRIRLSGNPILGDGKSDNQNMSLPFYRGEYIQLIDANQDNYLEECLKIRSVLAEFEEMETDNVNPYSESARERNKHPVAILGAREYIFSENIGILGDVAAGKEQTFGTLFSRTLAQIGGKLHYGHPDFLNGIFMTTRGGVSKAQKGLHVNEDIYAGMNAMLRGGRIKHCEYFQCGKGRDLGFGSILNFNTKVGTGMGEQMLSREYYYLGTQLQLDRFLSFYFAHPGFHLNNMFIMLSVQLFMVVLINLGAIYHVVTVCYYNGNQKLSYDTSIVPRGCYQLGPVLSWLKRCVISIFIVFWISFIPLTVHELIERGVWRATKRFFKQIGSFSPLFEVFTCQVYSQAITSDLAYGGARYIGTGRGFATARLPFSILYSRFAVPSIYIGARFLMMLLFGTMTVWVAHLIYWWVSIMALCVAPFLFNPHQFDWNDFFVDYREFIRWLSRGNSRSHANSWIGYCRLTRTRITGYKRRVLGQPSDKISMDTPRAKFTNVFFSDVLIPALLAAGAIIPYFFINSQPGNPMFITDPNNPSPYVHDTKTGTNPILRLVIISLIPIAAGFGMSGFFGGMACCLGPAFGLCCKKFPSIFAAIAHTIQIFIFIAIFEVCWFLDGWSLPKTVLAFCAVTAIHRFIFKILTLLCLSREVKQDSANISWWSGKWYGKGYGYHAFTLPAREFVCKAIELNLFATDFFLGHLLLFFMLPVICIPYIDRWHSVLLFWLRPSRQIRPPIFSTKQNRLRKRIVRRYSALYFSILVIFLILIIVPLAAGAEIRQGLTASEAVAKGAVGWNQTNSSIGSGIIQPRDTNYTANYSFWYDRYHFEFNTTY
UniProt Q9USK8: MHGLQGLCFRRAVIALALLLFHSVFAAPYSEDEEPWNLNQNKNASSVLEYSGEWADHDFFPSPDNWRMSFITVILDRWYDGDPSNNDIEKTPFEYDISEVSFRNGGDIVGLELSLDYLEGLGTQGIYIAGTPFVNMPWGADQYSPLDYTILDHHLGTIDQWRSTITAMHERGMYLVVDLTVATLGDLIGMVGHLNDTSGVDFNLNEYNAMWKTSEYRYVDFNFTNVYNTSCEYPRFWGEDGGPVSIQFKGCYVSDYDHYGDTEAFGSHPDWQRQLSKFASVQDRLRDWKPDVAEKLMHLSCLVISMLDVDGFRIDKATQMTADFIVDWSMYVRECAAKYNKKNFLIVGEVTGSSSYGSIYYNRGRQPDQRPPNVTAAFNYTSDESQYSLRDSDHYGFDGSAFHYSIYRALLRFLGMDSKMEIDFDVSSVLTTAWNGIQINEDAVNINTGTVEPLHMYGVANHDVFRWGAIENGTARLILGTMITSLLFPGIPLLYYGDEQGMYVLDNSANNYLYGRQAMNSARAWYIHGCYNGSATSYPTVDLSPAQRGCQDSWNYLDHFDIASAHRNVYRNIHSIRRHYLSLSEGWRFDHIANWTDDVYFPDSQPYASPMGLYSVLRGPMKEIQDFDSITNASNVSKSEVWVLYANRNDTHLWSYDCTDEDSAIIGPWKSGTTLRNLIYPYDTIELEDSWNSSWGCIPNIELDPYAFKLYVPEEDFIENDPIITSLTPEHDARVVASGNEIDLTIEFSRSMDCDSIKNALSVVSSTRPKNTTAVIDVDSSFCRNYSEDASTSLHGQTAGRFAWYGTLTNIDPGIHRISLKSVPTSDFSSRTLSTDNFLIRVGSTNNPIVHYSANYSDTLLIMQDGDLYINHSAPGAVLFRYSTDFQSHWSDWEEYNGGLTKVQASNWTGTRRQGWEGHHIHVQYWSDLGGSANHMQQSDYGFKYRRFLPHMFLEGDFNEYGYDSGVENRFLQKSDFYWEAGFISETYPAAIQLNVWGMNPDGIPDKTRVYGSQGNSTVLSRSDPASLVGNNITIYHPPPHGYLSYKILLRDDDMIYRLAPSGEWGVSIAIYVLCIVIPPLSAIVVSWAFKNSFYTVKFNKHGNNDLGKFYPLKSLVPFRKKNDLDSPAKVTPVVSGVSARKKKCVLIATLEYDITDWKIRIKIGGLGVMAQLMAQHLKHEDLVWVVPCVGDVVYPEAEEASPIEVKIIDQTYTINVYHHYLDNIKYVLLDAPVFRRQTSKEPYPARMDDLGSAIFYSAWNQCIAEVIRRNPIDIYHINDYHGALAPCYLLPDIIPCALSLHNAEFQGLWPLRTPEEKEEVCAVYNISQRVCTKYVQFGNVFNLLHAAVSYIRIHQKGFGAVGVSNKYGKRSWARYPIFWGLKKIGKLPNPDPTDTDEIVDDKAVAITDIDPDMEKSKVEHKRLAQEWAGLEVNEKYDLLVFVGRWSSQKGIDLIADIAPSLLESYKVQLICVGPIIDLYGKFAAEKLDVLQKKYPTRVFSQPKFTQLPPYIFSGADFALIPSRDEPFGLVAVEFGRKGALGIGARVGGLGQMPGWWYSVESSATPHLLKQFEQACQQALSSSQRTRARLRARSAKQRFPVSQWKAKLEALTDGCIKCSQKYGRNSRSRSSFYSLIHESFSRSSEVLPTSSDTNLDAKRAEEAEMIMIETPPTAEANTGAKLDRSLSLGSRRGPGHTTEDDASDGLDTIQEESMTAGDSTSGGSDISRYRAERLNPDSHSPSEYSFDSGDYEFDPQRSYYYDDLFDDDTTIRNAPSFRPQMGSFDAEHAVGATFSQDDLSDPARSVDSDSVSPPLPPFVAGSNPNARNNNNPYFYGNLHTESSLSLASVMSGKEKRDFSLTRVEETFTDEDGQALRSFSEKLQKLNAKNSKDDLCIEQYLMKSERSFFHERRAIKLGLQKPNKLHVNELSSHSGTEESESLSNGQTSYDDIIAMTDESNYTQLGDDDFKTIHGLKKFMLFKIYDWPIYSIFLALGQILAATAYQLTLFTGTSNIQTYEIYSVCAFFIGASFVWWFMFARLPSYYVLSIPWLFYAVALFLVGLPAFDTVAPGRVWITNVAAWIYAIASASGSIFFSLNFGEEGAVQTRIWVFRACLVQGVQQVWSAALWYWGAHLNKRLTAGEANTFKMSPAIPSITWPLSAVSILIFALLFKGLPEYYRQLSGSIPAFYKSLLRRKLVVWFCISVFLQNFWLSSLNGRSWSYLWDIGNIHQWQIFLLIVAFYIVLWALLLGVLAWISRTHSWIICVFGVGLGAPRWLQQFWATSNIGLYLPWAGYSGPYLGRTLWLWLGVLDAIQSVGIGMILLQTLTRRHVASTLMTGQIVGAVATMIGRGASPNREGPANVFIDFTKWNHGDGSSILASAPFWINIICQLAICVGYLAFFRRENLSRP
UniProt Q10287: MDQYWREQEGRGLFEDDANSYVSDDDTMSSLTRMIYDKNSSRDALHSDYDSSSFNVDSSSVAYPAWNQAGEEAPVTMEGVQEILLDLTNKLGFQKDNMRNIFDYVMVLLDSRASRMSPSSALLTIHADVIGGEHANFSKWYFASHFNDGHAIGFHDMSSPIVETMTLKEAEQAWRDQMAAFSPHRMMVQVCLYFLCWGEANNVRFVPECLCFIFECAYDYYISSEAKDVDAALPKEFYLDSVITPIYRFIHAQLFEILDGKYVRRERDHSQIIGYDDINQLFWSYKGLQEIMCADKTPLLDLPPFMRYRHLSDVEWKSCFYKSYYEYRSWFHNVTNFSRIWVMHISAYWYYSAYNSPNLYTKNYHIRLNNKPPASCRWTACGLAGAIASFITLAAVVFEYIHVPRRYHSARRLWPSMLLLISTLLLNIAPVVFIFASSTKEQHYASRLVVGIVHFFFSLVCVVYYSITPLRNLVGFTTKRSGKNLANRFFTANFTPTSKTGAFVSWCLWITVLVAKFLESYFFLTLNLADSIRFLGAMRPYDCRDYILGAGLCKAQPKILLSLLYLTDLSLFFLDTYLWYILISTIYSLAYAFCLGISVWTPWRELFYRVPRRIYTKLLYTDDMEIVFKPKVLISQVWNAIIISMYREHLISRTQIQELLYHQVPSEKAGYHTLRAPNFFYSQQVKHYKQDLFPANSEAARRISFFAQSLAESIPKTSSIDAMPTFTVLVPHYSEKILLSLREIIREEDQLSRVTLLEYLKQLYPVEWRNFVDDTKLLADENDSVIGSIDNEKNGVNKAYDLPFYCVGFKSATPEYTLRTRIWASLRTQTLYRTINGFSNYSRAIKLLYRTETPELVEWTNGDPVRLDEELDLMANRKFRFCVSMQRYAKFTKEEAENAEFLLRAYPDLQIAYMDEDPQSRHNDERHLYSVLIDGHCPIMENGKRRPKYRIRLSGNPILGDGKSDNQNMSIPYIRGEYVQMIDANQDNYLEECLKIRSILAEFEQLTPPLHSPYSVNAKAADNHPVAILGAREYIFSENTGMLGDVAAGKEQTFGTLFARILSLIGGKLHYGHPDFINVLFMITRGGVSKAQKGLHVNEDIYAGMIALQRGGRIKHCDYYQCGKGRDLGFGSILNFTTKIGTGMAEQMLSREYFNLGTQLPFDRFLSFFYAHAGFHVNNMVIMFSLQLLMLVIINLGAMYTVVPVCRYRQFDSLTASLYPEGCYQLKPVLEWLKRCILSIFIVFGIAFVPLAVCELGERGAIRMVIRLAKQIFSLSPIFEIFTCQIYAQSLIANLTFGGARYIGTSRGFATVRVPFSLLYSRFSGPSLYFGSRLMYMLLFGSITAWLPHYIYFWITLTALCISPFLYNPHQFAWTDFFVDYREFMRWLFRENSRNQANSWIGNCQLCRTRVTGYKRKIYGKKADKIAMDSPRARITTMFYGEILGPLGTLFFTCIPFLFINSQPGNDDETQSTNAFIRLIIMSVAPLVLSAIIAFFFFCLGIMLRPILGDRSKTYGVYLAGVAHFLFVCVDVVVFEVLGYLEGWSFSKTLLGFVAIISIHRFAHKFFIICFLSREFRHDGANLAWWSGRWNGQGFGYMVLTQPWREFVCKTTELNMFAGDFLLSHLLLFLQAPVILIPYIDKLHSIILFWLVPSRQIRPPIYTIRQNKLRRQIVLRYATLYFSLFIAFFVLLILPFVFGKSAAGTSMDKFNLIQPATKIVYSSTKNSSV

The target of the next experiment is T2, Rga7-mEGFP (S. pombe) (UniProt O94466).
T2 sequence: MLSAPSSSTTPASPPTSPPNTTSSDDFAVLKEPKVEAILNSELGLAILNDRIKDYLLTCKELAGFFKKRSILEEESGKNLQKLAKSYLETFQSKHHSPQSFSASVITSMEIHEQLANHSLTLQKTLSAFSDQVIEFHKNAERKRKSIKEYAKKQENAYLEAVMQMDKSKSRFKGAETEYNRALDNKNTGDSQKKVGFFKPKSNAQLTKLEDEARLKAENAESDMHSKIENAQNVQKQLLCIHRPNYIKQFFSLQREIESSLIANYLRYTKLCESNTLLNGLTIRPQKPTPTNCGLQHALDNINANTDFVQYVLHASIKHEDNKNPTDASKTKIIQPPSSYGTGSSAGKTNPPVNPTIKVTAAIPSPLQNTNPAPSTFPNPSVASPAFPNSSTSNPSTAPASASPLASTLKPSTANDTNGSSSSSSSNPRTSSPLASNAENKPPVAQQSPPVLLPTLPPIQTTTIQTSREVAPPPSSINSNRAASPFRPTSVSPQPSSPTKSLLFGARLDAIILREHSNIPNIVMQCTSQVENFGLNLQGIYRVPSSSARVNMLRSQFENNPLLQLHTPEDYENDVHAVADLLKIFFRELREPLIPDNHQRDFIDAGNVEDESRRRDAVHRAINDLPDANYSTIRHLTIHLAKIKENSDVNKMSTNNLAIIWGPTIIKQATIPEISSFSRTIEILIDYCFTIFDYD

The next experiment concerns the target T3, Rng10-mEGFP (S. pombe) (UniProt Q9P6L9).
T3 sequence: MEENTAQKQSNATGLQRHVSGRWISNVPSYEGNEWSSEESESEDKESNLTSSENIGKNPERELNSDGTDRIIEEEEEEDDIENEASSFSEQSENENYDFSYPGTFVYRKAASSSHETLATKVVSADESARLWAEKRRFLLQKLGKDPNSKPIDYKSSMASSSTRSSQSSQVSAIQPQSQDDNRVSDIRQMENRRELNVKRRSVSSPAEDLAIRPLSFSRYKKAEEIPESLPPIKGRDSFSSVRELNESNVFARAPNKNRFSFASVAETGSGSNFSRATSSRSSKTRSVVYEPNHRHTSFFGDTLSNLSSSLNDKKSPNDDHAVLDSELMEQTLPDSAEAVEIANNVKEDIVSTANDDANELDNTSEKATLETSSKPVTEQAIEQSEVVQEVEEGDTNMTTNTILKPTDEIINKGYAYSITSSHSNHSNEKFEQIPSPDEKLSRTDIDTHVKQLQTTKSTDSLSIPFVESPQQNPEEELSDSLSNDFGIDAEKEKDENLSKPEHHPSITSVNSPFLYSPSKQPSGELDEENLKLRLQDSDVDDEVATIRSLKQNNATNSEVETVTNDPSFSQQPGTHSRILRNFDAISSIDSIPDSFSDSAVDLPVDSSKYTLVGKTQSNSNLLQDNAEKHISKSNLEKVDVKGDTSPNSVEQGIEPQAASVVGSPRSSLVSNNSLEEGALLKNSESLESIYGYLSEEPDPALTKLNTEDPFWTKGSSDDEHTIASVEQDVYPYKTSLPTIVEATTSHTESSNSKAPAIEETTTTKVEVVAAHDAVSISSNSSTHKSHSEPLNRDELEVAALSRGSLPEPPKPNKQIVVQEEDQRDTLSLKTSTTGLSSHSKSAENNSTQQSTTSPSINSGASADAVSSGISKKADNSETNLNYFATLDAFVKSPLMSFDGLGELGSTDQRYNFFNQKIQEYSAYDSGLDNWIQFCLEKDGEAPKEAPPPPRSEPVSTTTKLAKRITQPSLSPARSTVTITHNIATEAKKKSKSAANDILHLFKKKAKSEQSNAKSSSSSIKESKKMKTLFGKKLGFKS

We go through 5 molecules from publication doi:10.1101/2025.05.13.653810, “Spatial control of secretory vesicle targeting by the Ync13–Rga7–Rng10 complex during cytokinesis” (bioRxiv, 2025).

No constants are given. Whether binding was seen depends on the method and setting. Some binding calls cover weakened binding; strength is not graded here. For some assays here: Where a sequence is shown, tags or fusion partners need not be part of it.

With “RFP-Bgs4 (from UniProt O74475 1-1955) (enzyme)”, the binding result (in experiment [1]; with Rga7-mEGFP (S. pombe); with Rng10-mEGFP (S. pombe)) was “binds” in each case.

In the case of “Ags1-mCherry (from UniProt Q9USK8 1-2410) (enzyme)”, the binding result (in experiment [1]; with Rga7-mEGFP (S. pombe); in the experiment with Rng10-mEGFP (S. pombe)) was “binds” each time.

For “tdTomato-Bgs1 (from UniProt Q10287 1-1729) (enzyme)”, the binding entry with Rga7-mEGFP (S. pombe) and with Rng10-mEGFP (S. pombe) was “no binding” in each case.

B1: Smi1-tdTomato (protein, UniProt O14362 1-504)
chain: MSKNSFSSMANSVTSFFQSLTTPNRHADPSFRPSRREKQSRLPTPLQSVAASAYSGVNASQTGLLNDSRANSVTNLPNSSNTSQVGLNNISPAPVGYVPGSKTNELANNSMEMQEISPNGSASLPPPVSESWRRIDRWAEENYYELYCQLCYGATVADVDSLEYELECTLPRDVRESLYIHDGQDRGGQPTGILFGVTLLDIEEIEEESELWRRVAQSYAEATLAGKIDQAVASRQASFPPGAVQCVYAHPGWIPLAKDFVGNNIAIDLAPGPAGQWGQVILFGRDQDTKYVVARSWADFLAIVAYDMENGKWLVDEDDNSLRLIYGPPREQWSYLDILKYRARKAERRKFKKRDGKRTTRPIPKSIAKEDVTNSANSTAPSTGTTVLDDGLDNNYEDIPLYGPSKDEELIKKEELEADTDLGLINTSEINQPANLPDEPTAETSNPVSATTVEAVTTTADNKDEEKNDHVTEDVSQNSTIAEASSLQAQEEEKEIETTSVKQE
Regarding B1, the binding entry with Rga7-mEGFP (S. pombe) is on record as “binds”.

B2: Trs120-tdTomato (protein, UniProt O14251 1-1210)
chain: MEFDFFSFVAPSRVQSLVLPFGRVRRKSFSSYLQLLRRVSHIQLSDVPVATATRKSSSFNPLAFPLGRLVYNFLTSLDDQQALLEEFEYFRRVFVLIGIVDGSEEQEVEQLCSTLDVWRRRIPHALVAKCIVFNCPEDKENIFNAPNIIIGPRSDFSINSVMRSILCDITAELLEGFSSLEFSIHARSVILSPITDMPHLAPLQRKNSNASIHSLGSSSRPTLTRTPSITSRSVNSVTERSKSLSKGRIENQFGQLYLLAGRVPNALKHFSTAIALSKATGDFLWQGLSLELFTVCLVIMAHLHVDVQIPPNILSMFPSYNDRLNAFGPLKFDALLNFITEMRNVVDQLYQKSTLQPNDAVPGLCFSESILRYAHLLTVVYSCKGFNDNALDHIIAQAPIRPVKKATTYVPNKATICQWIMRAQGQHLNSLSIRERCRIYGAMANMLGSIGFSRLRVKMLRELVASLTPVLLETRRQNASKNGIHPEVIASHTAQSFKSTHYCNILPLISEICQEYGLLKTDGSLLNPELTKWGWSNLQFDVLNELISLCDSLSDYRSILLLISLFFLTSVQTASSSQQISMFKAFRKTYLFASNAGIHINAPYWDPFMITDLKFIGSSENAELIHQRLRNGLPKSIEKGPFIYNPFNRRQDQNQSKSVLVVDEQVAFSIYFRNPLSVSVEVQDVHLETKGVSAKCSHSTFTMRPLSIERTTLTVTPTETGELHIVGCRVKVFGCEPILQYVYEAKDKHKSLHVYLEKSKDVNAELRSLDTIDHLWTYFPFKKDLKTKSFDCIVIASQPKLSLAFQNLTSGKFNFAEYETGELVYVIENTSFVEASHISVLFEDSSSKAFEQAIADKSITADRLYELQFEEFNLPTFTVESSQPFSLSPGERREIHIKIRAKPNSQEGLILFESSVHKPEDTEFYVRRLRIPVSLNISKRVDLKQWSAFMDTEGDPSYCLVLLNFYNHFSEPLFVTVKTASTDESRSVLIKPKADNVILFRLKRFIMSSEEINLDIPNLSTKQFVLSSGFKKSIEDSYTMKKRFWIKEYFLKEVQASWKTDDNLHHGEIYLRNHILSDEMANNLSILPIRIQAWVSYDSEKVTTVCPREPFKLVLEFFGHADTNMRYKISWTQLNTQANTSSFNGLILDGPEEDIVCFNNSKCHVVIERNMFAYTTGMYNIFVRIFNEELQLLSQPVDLDEPILLIVDAK
With B2, the binding result with Rga7-mEGFP (S. pombe) and with Rng10-mEGFP (S. pombe) was “binds” each time.
